The full ranking holds about 13,000 compounds; the median of “IFI” is about 4, and the highest 2% start at about 17. Some of the results follow.

A short description of this experiment: GSK_TCMDC: Inhibition Frequency Index (IFI). The number of non-kinase HTS assays where a compound showed > 50 % inhibition, expressed as a percentage of the number of such assays in which the compound was tested (-0 is zero). Format: functional.
In turn, `COc1cc2nc(N3CCC(CNC(=O)c4ccc(OC(F)(F)F)cc4)CC3)nc(N)c2cc1OC` yielded an IFI of 6.09%.

As for `CCn1c2ccccc2c2cc(Cc3cnc(N)nc3N)ccc21`, the IFI was 3.94%. In the case of `Cc1ccc(N2C(=O)C3C(C2=O)C2(c4ccccc4)C(=O)C3(c3ccccc3)C(c3ccccc3)=C2c2ccccc2)c(C)c1` (configuration not stated) it was 0.75%. The molecule `COc1ccc(CNc2nc(Nc3cccc(C#N)c3)nc(Nc3cccc(C#N)c3)n2)cc1Cl` displayed an IFI of 4.38%. In the case of `O=C(N[C@@H](CC1CCCCC1)C(=O)NCc1cccc2ccccc12)c1ccc(O)c(-c2ccc(Cl)c(Cl)c2)c1` it was 1.47%; in that of `CCCNCc1ccc(-c2ccc(CN(CCOC)C(=O)c3ccco3)cc2)nc1`, 0.69%; in that of `O=C(O[C@@H]1CN[C@H](C#Cc2cc3ncnc(Nc4ccc5c(cnn5Cc5cccc(F)c5)c4)c3s2)C1)N1CCCC1`, 2.59%. In the case of `Clc1cccc(CNC2CCN(CC3CCCCC3)CC2)c1` it was 2.03%; in that of `Nc1nc(N)c2c(ccc3c2ccn3Cc2ccc(-c3ccccc3)cc2)n1`, 12.8%. Next, `Cn1cncc1C(=O)Nc1cccc(-c2cccc(-c3nc4cc(F)ccc4[nH]3)c2)c1`: 2.7%; `Cc1cc(C=C2SC(=Nc3ccccc3)N(C3CCCC3)C2=O)c(C)n1-c1ccc(Cl)cc1`: -0%.

In the case of `CO/C(=C\C=C\c1cc2cc(Cl)c(Cl)cc2[nH]1)C(=O)NCCCN1CCC(c2ccccc2)CC1`, the IFI came to 12.6%. Next, `Cc1ccc(C(O)CNc2ccnc(Nc3cccc(-c4csc(C)n4)c3)n2)cc1` (configuration not stated): 8.74%. `COc1cc(C(C)C)ccc1C1CCN(CCCCNC(=O)c2ccc(NC(=O)c3ccc(Cl)cc3)cc2)CC1`: the IFI turned out to be 10.4%. Consider `CS(=O)(=O)c1ccc(-n2nc(C(F)(F)F)cc2-c2ccc(C=NOCC(=O)O)o2)cc1`, for which the IFI is 0.74%. Next, `CC(C)(C)c1ccc(NC(=O)c2cccc(CN3CCN(Cc4cccc(O)c4)CC3)c2)cc1`: 6.67%; `O=C(Cc1c[nH]cn1)Nc1cccc(-c2cccc(-c3nc4cc(F)ccc4[nH]3)c2)c1`: 5.5%; `Cc1cc(-c2nc3ccc(CN4CCN(C)CC4)cc3[nH]2)nn1Cc1cc(Cl)ccc1OCc1ccccc1`: 11.5%.

`CC1CC(NCCCNc2cc(=O)c3ccccc3[nH]2)c2c1cc(Cl)c(Cl)c2Cl` (configuration not stated) returned an IFI of 6.52%. Molecule `CCC(ON1C(N)=NC(N)=NC1(C)C)c1ccc(Cl)cc1` (configuration not stated) came in with an IFI of 4.44%. Molecule `Oc1ccc2nc(N3CCNCC3)nc(NCCCc3ccccc3)c2c1` came in with an IFI of 1.52%. With `O=C(Nc1cccc(C(F)(F)F)c1)c1cccc(S(=O)(=O)NCC2CCN(CC3CCCCC3)CC2)c1`, the IFI is -0%. Next, `O=C(Nc1cccc(CN2CCCN(Cc3cccc(Cl)c3)CC2)c1)c1ccc(-c2ccccc2)cc1`: 6.85%. Next, `NCc1cccc(-c2ccc3ccnc(N)c3c2)c1`: 2.86%; `COc1ccc(Nc2nccc(-c3ccc4c(-c5ccsc5)cnc(N)c4c3)n2)cc1`: 2.13%. In the case of `Cc1cc(C)cc(NC(=S)NCCCCN2CCN(c3cccc(Cl)c3)CC2)c1`, the IFI is 4.29%. In the case of `CCNc1cc(C)nc(Nc2ccc(NC(=O)c3cccs3)cc2)n1` it was 9.62%; in that of `COc1cccc(C=NNc2cc(C)nc3c(OC)cccc23)c1`, 2.84%; in that of `C[C@H](NC(=O)[C@H](Cc1ccccc1)NC(=O)OC(C)(C)C)C(=O)N[C@@H](CC1CCCCC1)C(O)CN` (some centres not stated), 2.22%. In the case of `COc1cccc(Nc2nc(C)cc(NCc3ccc(-c4c(C)noc4C)cc3)n2)c1` it was 4.62%; in that of `O=C(NCCCCN1CCN(c2ccc3c(c2)CCC3)CC1)c1ccc(NC(=O)c2ccc(Cl)cc2)cc1`, 2.59%; in that of `CCOC(=O)N1CCN(CCCCNc2c3ccc(Cl)cc3nc3ccc(OC)cc23)CC1`, 5.3%.

The molecule `O=C(Cc1cccs1)NC(CCCN1CCC(Oc2cccc(Cl)c2)CC1)c1ccc(Cl)c(Cl)c1` (configuration not stated) yielded an IFI of 7.04%. Next, `O=C(NC1CCCCC1)N(Cc1cccc(-c2ccc(CNCCc3ccccc3)cc2)c1)C1CCN(Cc2ccccc2)CC1`: 7.97%; `CC(=O)Nc1ccc(CN2CCC(NC(=O)c3ccc(-c4cccc(F)c4)s3)CC2)cc1`: 1.75%.

The molecule `c1ccc(CCNCc2ccc(-c3ccc(CNCc4ccc5c(c4)OCO5)cc3)nc2)cc1` gave an IFI of 6.57%. In the case of `COc1cc(-c2cc3cc(Cl)c(Cl)cc3[nH]2)ccc1C(=O)NC1CCN(Cc2ccccc2)CC1` it was -0%; in that of `Cc1cc(NCCCOc2ccc(Cl)cc2)nc(NCc2ccccc2)n1`, 10%.

Molecule `CC1CN(Cc2ccc(-c3ccc(-c4nc5ccccc5[nH]4)cc3)cc2)CC(C)O1` (configuration not stated) registered an IFI of 6.94%. In the case of `COc1ccc(CNc2nc(NCc3ccccc3)c3cc(OC)c(OC)cc3n2)cc1OC` it was 7.14%; in that of `CCN1C(=O)C(CC(=O)Nc2cccc(Cl)c2)N(Cc2ccc(OC)c(OC)c2)C1=S` (configuration not stated), 0%; in that of `N#Cc1ccc(/C=C/C(=O)NCCCCCN2CCN(C(=O)Nc3ccc(Cl)c(C(F)(F)F)c3)CC2)cc1`, 9.8%. Next, `Cc1cccc2nc(-c3ccc(-c4cccc(CN5CCN(c6ccc(C#N)cn6)CC5)c4)s3)[nH]c12`: 6.86%; `CCOc1cc(C(=O)NCc2cc(Cl)cc(Cl)c2)ccc1-c1nc2cc(Cl)ccc2[nH]1`: 1.53%. Regarding `CCCCOP(=O)(OCCCC)C(=Cc1ccc(O)c2ccccc12)P(=O)(OCCCC)OCCCC`, the IFI is 7.75%. In the case of `CCCN(c1ccc(C(F)(F)F)cc1[N+](=O)[O-])S(=O)(=O)C(c1ccccc1)c1ccc(C(F)(F)F)cc1[N+](=O)[O-]` (configuration not stated) it was 0%; in that of `COc1ccc(-c2nc3ccc(C)nc3nc2-c2ccc(OC)cc2)cc1`, -0%; in that of `O=C(CCn1cncn1)N1CCCC(c2[nH]c3ccccc3c2-c2ccncc2)C1` (configuration not stated), 1.16%.

`O=C1SC(S)=NC1=CNCCCCCCO` came in with an IFI of 4.44%. The molecule `Cc1cc(=NN=Cc2ccccc2)c2cc(F)ccc2[nH]1` returned an IFI of 2.99%.

Molecule `O=C(c1cc(-c2ccccc2)n[nH]1)N1CCN(S(=O)(=O)c2ccc(Cl)s2)CC1` yielded an IFI of -0%. Next, `CCc1cc2c(=O)c(-c3nc(C)cs3)c([C@H](N)Cc3ccc(O)cc3)oc2cc1O`: 2.11%; `Cc1cc(N)cc2nc(-c3ccc(N)cc3)[nH]c12`: 3.42%; `CC(C)Cn1c2ccccc2c2nc3nc(N)nc(N)c3nc21`: 4.41%.

Molecule `NC(=O)C1CCN(Cc2ccc(-c3ccc(-c4nc5cc(C(F)(F)F)ccc5[nH]4)cc3)cc2)CC1` yielded an IFI of 5.77%. In the case of `COc1ccccc1-c1nc2nc(N)nc(N)c2nc1-c1ccccc1OC` it was 0.7%; in that of `O=C(NCc1cccnc1)C(c1cc2ccccc2o1)N1CCN(C(c2ccccc2)c2ccccc2)CC1` (configuration not stated), 3.47%.

Source of the values: ChEMBL document CHEMBL1157539, “Thousands of chemical starting points for antimalarial lead identification” (Nature, 2010).
